Measured values as given in PubChem BioAssay AID504706 (National Center for Advancing Translational Sciences (NCATS), 2011).
In all, about 320,000 compounds went through this assay and about 200 (0.062%) were called active. Inconclusive means that the source gave no clear call. Such entries were picked first, then a sample of the others. The call rests on the fitted dose curve; in most records, active means well fitted activation curve with a large enough effect; inconclusive means small, poorly fitted or top-dose-only effect; inactive means no such curve, though single readings can be large or run the other way. No potency is given beside an inconclusive call; the fits are too rough.

Assay: qHTS assay for re-activators of p53 using a Luc reporter; further: nearly all actives have a fitted effect of over 45% in size; on activity change, positive = activation: % of control where 0% means no effect
Settings: H1299 p53-A138V BP100-luciferase reporter, luminescence, 24 h; series mostly up to 92.2 µM; activity change, positive = activation: at the top concentration
How it was run: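 p53-null H1299 cells stably carrying temperature-sensitive p53-A138V and a BP100-luciferase reporter were pinned with compounds (4-point, 1:5 series) and held 24 hrs at 37 deg C. Luminescence was read 10 min after detection reagent.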
Potency means the concentration at half of the fitted maximal effect; tags describe the fitted curve by direction and shape.

Compound | activity change, positive = activation | Potency
CCOC(=O)NC(=S)c1ccc[nH]1 | inactive: -4.11% | –
Cc1cccc(-n2nc([N+](=O)[O-])c(=NCc3cccnc3)n2O)c1 | inactive: 10.7% | –
CC(NC(=O)c1cc2c(=O)n3ccccc3nc2n(CC2CCCO2)c1=N)c1ccccc1 (configuration not stated) | inactive: 1.98% | –
O=C(CNc1cccc2ccccc12)N/N=C/c1ccc([N+](=O)[O-])o1 | inactive: 17.7% | –
O=C(Nc1ccc(Cl)c(C(F)(F)F)c1)C(=O)N1CCCCC1 | – | inconclusive [activator, partial curve, poor fit]
COc1cccc(-c2nc(-c3ccncc3)no2)c1 | – | inconclusive [activator, full curve, poor fit]
O=C(OCC#CCSc1nnc(-c2cccc3ccccc23)o1)c1ccc(Cl)cc1 | – | inconclusive [activator, partial curve, poor fit]
COc1ccc(C(OCC(O)CN(C)C2CCCCC2)c2ccc(OC)cc2)cc1 (configuration not stated) | inactive: 2.12% | –
CC1=CC(=C2C(=O)c3ccccc3C2=O)C=C(C)N1Cc1ccco1 | – | inconclusive [activator, full curve, poor fit]
O=C(N/N=C/c1ccccc1O)c1ccc2c(c1)OCO2 | – | inconclusive [activator, full curve, poor fit]
O=C(Nc1ccc(O)cc1)c1c(O)c2c([nH]c1=O)CCCC2 | inactive: 7.22% | –
COCCCNC(=O)/C(C#N)=C/c1cccc(NC(=O)c2ccccc2Cl)c1 | – | inconclusive [activator, partial curve, poor fit]
CNc1nnc(-c2cccc(N(C)C)c2)s1 | inactive: 6.03% | –
C=CCN(C(=O)C1=NN(C2CCS(=O)(=O)C2)C(=O)CC1)c1nc(-c2ccc([N+](=O)[O-])cc2)cs1 (configuration not stated) | inactive: -2.79% | –
Cc1occc1C(=O)O/N=C(\N)c1ccc(Cl)cc1 | – | inconclusive [activator, partial curve, poor fit]
Nc1c(-c2ccc(Cl)cc2)nnn1-c1ccccc1 | – | inconclusive [activator, partial curve, poor fit]
CC(C)(C)c1ccc(/C=N/NC(=O)C2CCCC2)cc1 | – | inconclusive [activator, partial curve, poor fit]
CC1CCc2c(sc(NC(=O)c3cccn3C)c2C(N)=O)C1 (configuration not stated) | – | inconclusive [activator, partial curve, poor fit]
O=C(CSc1ccc2nnc(-c3cccnc3)n2n1)Nc1ccc(F)cc1F | – | inconclusive [activator, single point]
c1ccc(NC2=Nc3ccccc3CS2)cc1 | – | inconclusive [activator, full curve, poor fit]
COc1ccc(-c2nnc(SC(=O)N3c4ccccc4Sc4ccccc43)o2)cc1 | – | inconclusive [activator, single point]
Cc1csc(NC(=O)C(Cc2ccccc2)n2cccc2)n1 (configuration not stated) | – | inconclusive [activator, partial curve, poor fit]
Cc1cccc(-c2ccc3ncnc(NCc4cccs4)c3c2)c1 | inactive: 8.76% | –

Compound | activity change, positive = activation | Potency
Cc1cc(C)n2c(SCC(=O)NC3CCCCC3C)nnc2n1 (configuration not stated) | inactive: 0.0648% | –
CC1CCCN(S(=O)(=O)c2ccc(C(=O)Nc3nnc(C4CC4)o3)cc2)C1 (configuration not stated) | – | inconclusive [activator, single point]
CN1CCc2c(sc3c2C(=O)NC(c2cccc(OC(=O)c4cccs4)c2)N3)C1 (configuration not stated) | – | inconclusive [activator, full curve, poor fit]
Cc1ccc(Nc2nnc(SCC(=O)NCCN3C(=O)CSC3=O)s2)cc1C | – | inconclusive [activator, full curve, poor fit]
O=C1CCN(CCc2ccccc2)CCN1[C@H](CSc1ccccc1)c1ccccc1 | inactive: 18.3% | –
O=C(CSc1nnnn1C1CCCCC1)NCCc1ccccc1 | – | inconclusive [activator, partial curve, poor fit]
CCN(CC)c1nc2ccccc2c(N)c1-c1ccccc1 | inactive: -8.16% | –
Cc1cc(NC(c2cccnc2)c2ccc3cccnc3c2O)no1 (configuration not stated) | – | inconclusive [activator, full curve, poor fit]
CC(=O)Nc1ccc(OCc2nnc(-c3ccc(Cl)cc3)o2)cc1 | – | inconclusive [activator, single point]
O=C(CNC(=O)c1ccc(Br)cc1)Nc1ccc2c(c1)CCC2 | – | inconclusive [activator, full curve, poor fit]
Fc1ccc(CSc2ccc(-c3ccco3)nn2)cc1 | – | inconclusive [activator, partial curve, poor fit]
Cc1ccc(CNC(=O)c2cc3c(=O)n4ccccc4nc3n(CC3CCCO3)c2=N)cc1 (configuration not stated) | – | inconclusive [activator, single point]
Cc1ccc(C(=O)Nc2ccc(C(F)(F)F)n(C)c2=O)cc1 | inactive: 10.9% | –
COc1cc2c(cc1OC)CN(C(=O)C1CCN(S(=O)(=O)c3ccccc3F)CC1)CC2 | inactive: 4.67% | –
Cc1noc(/C=C/c2cccs2)c1S(=O)(=O)N1CCC(C(=O)NCCCN2CCC(C)CC2)CC1 | – | inconclusive [activator, partial curve]
N/C(=N\OC(=O)c1ccccc1Br)c1cccc([N+](=O)[O-])c1 | – | inconclusive [activator, partial curve, poor fit]
O=C(Nc1nccs1)c1ccc(Br)o1 | – | inconclusive [activator, partial curve, poor fit]
CCCSc1cc(NCCOC(=O)CCC)c([N+](=O)[O-])c2nonc12 | inactive: -37.9% | –
COC(=O)CNC(c1ccccc1)c1cc(C)ccc1NC(=O)CNC(=O)OCc1ccccc1 (configuration not stated) | inactive: -2.69% | –
COc1ccc(C(=O)COC(=O)/C=C/c2ccccc2)c(OC)c1 | – | inconclusive [activator, single point]
O=C(c1ccncc1)N1N=C(c2ccc(Cl)cc2)CC1c1ccccc1O (configuration not stated) | – | inconclusive [activator, partial curve, poor fit]
Cc1cc(C)n(CCn2nc(C)cc2C)n1 | – | inconclusive [activator, partial curve, poor fit]
Clc1ccc(C2=NNC(=NCC3CCCO3)SC2)cc1 (configuration not stated) | – | inconclusive [activator, full curve, poor fit]

Compound | activity change, positive = activation | Potency
Cc1ccc(N2CCN(CC(O)COc3ccccc3)CC2)cc1 (configuration not stated) | – | inconclusive [activator, single point]
CC(C)CN(C(=O)CSc1n[nH]c(-c2cccs2)n1)C1CCS(=O)(=O)C1 (configuration not stated) | – | inconclusive [activator, partial curve, poor fit]
Cn1c(=O)c(/C=C/c2ccccc2)nc2ccccc21 | – | inconclusive [activator, full curve, poor fit]
COc1cccc(C(=O)/C=C/Nc2ccc(S(=O)(=O)Nc3onc(C)c3C)cc2)c1 | – | inconclusive [activator, partial curve, poor fit]
O=C(NCCNc1ccc([N+](=O)[O-])cc1C(F)(F)F)c1ccc(F)cc1 | inactive: -15% | –
Cc1ccc(NC(=S)NCC23C=CC(O2)C2C(=O)N(c4ccc(C)cc4)C(=O)C23)cc1 (configuration not stated) | – | inconclusive [activator, single point]
N/C(=N\OC(=O)c1ccc(Cl)c([N+](=O)[O-])c1)c1ccccc1 | – | inconclusive [activator, single point]
O=C(COc1ccc(Cl)cc1)NC1=NN(c2ccccc2)C(=O)C1 | inactive: -14.1% | –
CCc1ccccc1-n1nnnc1SCC(=O)Nc1ccc(N2CCN(C)CC2)cc1 | inactive: -0.424% | –
CCNC(=O)COc1ccc(Br)cc1Cl | – | inconclusive [activator, full curve, poor fit]
O=C(NCc1cccs1)C(=O)c1c[nH]c2ccccc12 | – | inconclusive [activator, partial curve, poor fit]
O=C1N=C(N2CCCC2)S/C1=C\c1ccccc1 | inactive: 16.6% | –
CCC(CO)NCc1ccc(-c2ccccc2)cc1 (configuration not stated) | – | inconclusive [activator, partial curve, poor fit]
Cc1ccc2[nH]cc(CCNC(=O)Nc3ccccc3)c2c1 | – | inconclusive [activator, single point]
CC(=O)c1cnn(-c2nc3c(C)cccc3s2)c1C | – | inconclusive [activator, partial curve, poor fit]
Cc1cc(C(=O)CN2C(=O)C(=O)N(Cc3ccco3)C2=O)c(C)n1CCc1ccc(F)cc1 | – | inconclusive [activator, partial curve, poor fit]
Cc1ccc(-c2nnc(SCC(=O)N3CCCC3)o2)cc1C | – | inconclusive [activator, partial curve, poor fit]
CCC(C)NC(=O)c1ccc([N+](=O)[O-])c(Cl)c1 (configuration not stated) | – | inconclusive [activator, single point]
O=C(/C=C\Nc1cccc(F)c1)c1cccs1 | – | inconclusive [activator, partial curve, poor fit]
COC(=O)C1=C(C(=O)c2ccccc2)C(c2ccc(OC)c(OC)c2)Nc2nnnn21 (configuration not stated) | – | inconclusive [activator, partial curve, poor fit]
Cn1cc([N+](=O)[O-])c(C(=O)Nc2ccc3c(c2)OCCO3)n1 | – | inconclusive [activator, full curve, poor fit]
